According to PMC4336329 (PLoS ONE, 2015):
In all, about 310,000 compounds went through this assay and about 14,000 (4.5%) showed an effect of 50% or more. Effects have a minus sign here. This is one part of the list.

target: human ether-à-go-go-related gene (hERG) potassium channel (human, UniProt Q12809); assay: primary screen, population patch clamp on CHO cells stably expressing hERG
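Note: peak tail current of the secondary pulse compared with the same well before compound.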

Sequence of human ether-à-go-go-related gene (hERG) potassium channel (Q12809 whole entry, looked up): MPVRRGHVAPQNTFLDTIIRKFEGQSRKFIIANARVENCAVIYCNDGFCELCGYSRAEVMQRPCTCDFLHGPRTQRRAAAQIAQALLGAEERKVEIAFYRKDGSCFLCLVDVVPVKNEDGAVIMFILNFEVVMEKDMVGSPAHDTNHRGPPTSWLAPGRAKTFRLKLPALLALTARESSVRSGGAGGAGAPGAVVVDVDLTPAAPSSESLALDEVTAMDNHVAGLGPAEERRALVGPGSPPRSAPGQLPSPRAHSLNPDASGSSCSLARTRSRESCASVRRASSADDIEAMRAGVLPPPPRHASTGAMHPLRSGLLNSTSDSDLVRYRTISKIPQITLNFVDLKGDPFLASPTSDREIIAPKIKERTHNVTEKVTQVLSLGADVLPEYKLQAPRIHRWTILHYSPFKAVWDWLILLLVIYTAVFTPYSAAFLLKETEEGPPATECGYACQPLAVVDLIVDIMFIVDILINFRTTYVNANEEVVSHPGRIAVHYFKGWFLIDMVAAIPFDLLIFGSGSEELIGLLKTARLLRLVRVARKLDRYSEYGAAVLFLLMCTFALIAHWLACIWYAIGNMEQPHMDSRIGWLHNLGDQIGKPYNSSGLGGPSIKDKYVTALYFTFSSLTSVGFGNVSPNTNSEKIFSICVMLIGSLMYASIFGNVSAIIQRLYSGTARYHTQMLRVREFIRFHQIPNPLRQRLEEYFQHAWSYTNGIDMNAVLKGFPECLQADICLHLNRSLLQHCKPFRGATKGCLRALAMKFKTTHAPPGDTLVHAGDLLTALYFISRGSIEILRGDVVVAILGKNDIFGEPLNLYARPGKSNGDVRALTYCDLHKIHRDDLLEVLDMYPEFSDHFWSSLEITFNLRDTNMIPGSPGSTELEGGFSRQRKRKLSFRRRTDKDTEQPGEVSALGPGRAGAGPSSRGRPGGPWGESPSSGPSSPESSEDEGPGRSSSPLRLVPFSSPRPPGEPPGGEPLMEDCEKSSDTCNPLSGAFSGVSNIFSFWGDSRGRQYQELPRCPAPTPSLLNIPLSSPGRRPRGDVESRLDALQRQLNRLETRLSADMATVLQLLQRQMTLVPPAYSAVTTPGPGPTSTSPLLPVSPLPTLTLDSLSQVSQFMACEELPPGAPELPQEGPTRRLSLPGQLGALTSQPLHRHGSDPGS

| Compound | hERG current change (%, negative = inhibition) at 10uM [%] |
| --- | --- |
| O=C(NC(=S)NNS(=O)(=O)c1ccc(Cl)cc1)c1cccnc1 | 18.6 |
| COc1nc(OC)nc(N2CCC(C(=O)NC3CCCCCC3)CC2)n1 | 1.3 |
| Nc1ccc(S(=O)(=O)Nc2nc(-c3ccccc3)cc(-c3ccccc3)n2)cc1 | 21.6 |
| Cc1ccc(S(=O)(=O)c2cc(C#N)c(=O)[nH]c2N)cc1 | 16.8 |
| CCc1ccc(C(=O)CN2C(=O)NC3(CCOc4ccccc43)C2=O)s1 (centres unmarked) | -42.2 |
| CCCCCCc1cc2cc(C(=O)OCC)c(=O)oc2cc1O | 23.3 |
| CC(C)(C)NC(=O)C1c2ccccc2Oc2ccccc21 | 10.1 |
| CCCCCCN1N=C(C)C(C(=O)c2ccc(Cl)cc2)C1=O (centres unmarked) | 11.4 |
| O=C(Nc1ccc(S(=O)(=O)Nc2ncccn2)cc1)c1cccnc1 | 22 |
| C=CCSc1nnc(-c2ccncc2)n1-c1ccc(OCC)cc1 | -41.5 |
| C[C@@H](C(=O)Nc1ccc2c(c1)OCCO2)n1c(=O)[nH]c2ccccc2c1=O | 11.7 |
| COc1ccc(N2CCN(C(=O)c3ccc(C(C)(C)C)cc3)CC2)cc1 | -15 |
| O=C(NCCN1CCOCC1)C1CCC(CNS(=O)(=O)c2ccccc2)CC1 (centres unmarked) | 7.48 |
| COC(=O)N1C/C=C\C(c2ccc(OC)cc2)N(Cc2ccc(F)cc2)C(=O)C1 (centres unmarked) | -2.29 |
| N#Cc1ccccc1S(=O)(=O)N1CCN(c2cnccn2)CC1 | -4.79 |
| COc1cccc(CN2C(=O)C(C)N(C(=O)c3c(F)cccc3F)c3ccccc32)c1 (centres unmarked) | 15.8 |
| Cc1cccc(NC(=S)NCC2CCCO2)c1 (centres unmarked) | -1.07 |
| COc1ccc(C2CC(c3ccccc3)Nc3ncnn32)cc1 (centres unmarked) | -24.7 |
| Nc1nnc(SCC(=O)Nc2ccc3c(c2)OCCO3)s1 | -1.45 |
| C=CCNc1nc(C(=O)OCC(=O)Nc2cc(S(C)(=O)=O)ccc2Cl)cs1 | -5.31 |
| CCOc1ccccc1-n1c(=S)sc2c(=O)n(-c3ccc(F)cc3)c(SCC(=O)O)nc21 | 21.4 |
| CC(C)(C)Nc1nc(Nc2ccc([N+](=O)[O-])cc2)nc(NC(C)(C)C)n1 | 27.5 |
| CCOC(=O)Cn1nc(C)c(NC(=O)c2ccc(Cl)c([N+](=O)[O-])c2)c1C | 14.2 |

| Compound | hERG current change (%, negative = inhibition) at 10uM [%] |
| --- | --- |
| C=CCc1ccc(OCCOc2cccc3cccnc23)c(OC)c1 | 9.23 |
| CC(C(=O)NCC1CCCO1)N(C(=O)c1snc(C(N)=O)c1N)c1ccccc1 (centres unmarked) | -4.06 |
| Cc1ccc(NC(=O)CN2CCN(C)CC2)cc1S(=O)(=O)N1CCOCC1 | -41.8 |
| Cc1c(C(=O)N(C)CC(=O)Nc2cccc(F)c2)oc2c(Cl)cccc12 | -11.9 |
| Cc1cccn2c(=O)c(C=O)c(N3CCN(C)CC3)nc12 | -0.442 |
| CCn1c2ccccc2c2nnc(SCc3ccc(C(=O)OC)o3)nc21 | -4.44 |
| CCC(C)NC(=O)Cc1c(OC)ccc2cc(Br)ccc12 (centres unmarked) | -8.26 |
| O=C(NCc1cccnc1)c1ccccc1-c1nc(-c2ccccc2)no1 | -37.2 |
| CC1CC(C)CN(CCCNC(=O)c2csc3c2CCCC3)C1 (centres unmarked) | -65 |
| C=CCN1CCCC1CNC(=O)c1cc2[nH]nnc2cc1OC.Cl (centres unmarked) | 12.7 |
| CC(C)(C)c1ccc(C(=O)NCc2ccc(Cl)cc2)cc1 | 12.6 |
| O=c1c2c3c(sc2ncn1-n1cccc1)CCCCC3 | -11.6 |
| Cc1ncc([N+](=O)[O-])n1CC(=O)N/N=C/c1ccccc1F | 11.8 |
| C/C(=N\NC1=NCCN1)c1ccc(Cl)cc1 | -41.7 |
| COc1ccc(N(CC(=O)NCCc2ccc(Cl)cc2)S(=O)(=O)c2c(C)[nH]c(=O)[nH]c2=O)cc1 | -1.43 |
| CNC(=O)c1ccc(-c2nc(-c3ccccc3)cs2)cc1 | 16.9 |
| O=C(c1cc2c(ccc3ccccc32)oc1=O)N1CCCC1 | 9.48 |
| CCn1ccc(C(=O)Nc2ccc(S(=O)(=O)Nc3ccccc3OC)cc2)n1 | -32.5 |
| COc1ccc(N2CCN(C(=O)c3ccc4c(=O)n(Cc5ccc6c(c5)OCO6)c(=O)[nH]c4c3)CC2)cc1 | 36.1 |
| O=C(OCC1CC(c2ccccn2)=NO1)c1ccc(Br)cc1 (centres unmarked) | -0.0181 |
| Cc1cc(Sc2nc(NC(C)C)nc(NC(C)C)n2)nc(Cl)n1 | -20.2 |
| COc1ccc(C(C)C)cc1S(=O)(=O)Nc1ncn[nH]1 | 31.3 |
| O=c1ccc2cc(S(=O)(=O)N3CCN(c4ccc(Cl)cc4)CC3)ccc2o1 | -52.8 |

| Compound | hERG current change (%, negative = inhibition) at 10uM [%] |
| --- | --- |
| COc1ccc(C)cc1CN1C(=O)c2ccccc2C1=O | 17.5 |
| O=C(Nc1ccccc1Cl)NC1CCCCCCC1 | 9.91 |
| Cc1cccc(CNC(=O)c2ccc(NC(=O)C3=CSCCO3)cc2)c1 | 5.08 |
| COC(=O)C(NC(C)=O)(Nc1ccc(Br)cc1)C(=O)OC | 38.3 |
| CCOc1ccccc1NC(=O)C(OC(=O)c1ccc(N(C)C)cc1)c1ccccc1 (centres unmarked) | 3.98 |
| Cc1nc2sc3c(c2c(=O)[nH]1)CCCC3 | 4.08 |
| COc1ccc(C(=O)NC(=S)Nc2ccccc2N2CCOCC2)cc1Br | 2.74 |
| Cc1cccc2nc(-c3ccccc3)nc(N[C@@H](CO)c3ccccc3)c12 | -2.51 |
| COc1ccc(N=CC2=C(O)CC(c3ccccc3)CC2=O)c(OC)c1 (centres unmarked) | -6.57 |
| Cc1ccc(N2CC(C(=O)Nc3nnc(SCC(=O)N4CCOCC4)s3)CC2=O)cc1 (centres unmarked) | 11.8 |
| Cc1nn2c(C(F)(F)F)c3c(nc2c1-c1ccccc1)CCC3 | 19.1 |
| COC(=O)C(NC(C)=O)(Nc1cccc(C)n1)C(F)(F)F (centres unmarked) | 8.06 |
| O=C(Nc1nc2ccc(C(=O)N3CCCCC3)cc2s1)C1CCCCC1 | 7.68 |
| O=C(NCCOc1ccc(F)cc1)C1CCC(=O)N(CCN2CCOCC2)C1 (centres unmarked) | 11.2 |
| COC(=O)c1cn(NC(=O)c2ccncc2)c(=O)c2ccccc12 | 0.88 |
| O=[N+]([O-])c1ccc(N2CCCC2)cc1N/N=C1\CN2CCC1CC2 | -11.9 |
| COc1ccccc1NC(=O)CSc1nnc(COc2ccccc2OC)n1C | -15.7 |
| COC(=O)c1cc(OC)c(OC)cc1NC(=S)N1CCN(Cc2ccccc2)CC1 | 6.28 |
| CCc1nn(CC(=O)NCCCN(CC)c2cccc(C)c2)c(=O)c2cc3occc3n12 | -16.3 |
| O=C(COC(=O)C1CCC1)NCc1ccccc1Cl | 7.42 |
| Cc1csc(NC(=O)CN2C(=O)c3ccccc3C2=O)c1C(N)=O | -5.92 |
| CC1(C)CC(=O)C(C=NCC(O)c2ccccc2)=C(O)C1 (centres unmarked) | 17.1 |
| CCN(CCCNC(=O)Cn1ncc2c([nH]c3ccc(C)cc32)c1=O)Cc1ccccc1 | -58.5 |

| Compound | hERG current change (%, negative = inhibition) at 10uM [%] |
| --- | --- |
| O=S(=O)(c1ccc(NC(=S)NN=C2CCCCC2)cc1)N1CCOCC1 | -2.96 |
| Cc1cc(C)n2nc(C(=O)OCC(=O)Nc3ccc(F)cc3F)nc2n1 | 8.68 |
| CCCCn1c(=O)n(CC(O)c2ccccc2)c(=O)c2c1ncn2C1CCCC1 (centres unmarked) | -37 |
| O=c1ccc(-c2ccc(S(=O)(=O)NCC3CCN(Cc4ccccc4F)CC3)s2)n[nH]1 | -32.6 |
| Cc1ccc(C)c(NS(=O)(=O)c2ccc3[nH]c(=O)[nH]c3c2)c1 | 0.304 |
| O=S(=O)(c1ccc2c(c1)N(Cc1ccc(Cl)cc1)C1CCCN21)N1CCOCC1 (centres unmarked) | 0.641 |
| CCn1c(SCC(=O)N2CCN(C(=O)c3ccco3)CC2)nnc1C(C)C | 14.4 |
| Cc1noc(C)c1C(=O)OCC(=O)NC1CC1 | 5.6 |
| CC(C)N(Cc1ccco1)/N=C/c1c(O)n(Cc2ccccc2)c(=O)[nH]c1=O | 8.85 |
| CN(C)CCCn1c(SCc2c(Cl)cccc2Cl)nnc1-c1ccncc1.O=C(O)C(=O)O | -0.471 |
| CCOC(=O)Cc1c(C)nc2c(-c3ccc(Cl)cc3)c(C)nn2c1C | 9.91 |
| COc1cccc(/C=C2\N=C(SC)SC2=O)c1OC | -1.25 |
| Cn1nnnc1CCOCCc1nnnn1C | 4.52 |
| CCOC(=O)[C@@H]1[C@H]2COc3cc(OC)ccc3[C@H]2N2C(=O)N(c3ccc(F)cc3)C(=O)[C@@]12C | 16.3 |
| CCOC(=O)Cn1c(=O)oc2cc(S(=O)(=O)NCCc3ccc(C)cc3)ccc21 | -29.6 |
| CC(CN1CCOCC1)C(=O)c1ccccc1.Cl (centres unmarked) | 8.47 |
| CCc1cc2c(SCC(=O)c3cccs3)ncnc2s1 | 13.7 |
| O=C(NCCCN1CCOCC1)/C(=C/c1ccc(F)cc1)NC(=O)c1ccccc1 | -73.5 |
| O=C(c1cc([N+](=O)[O-])ccc1N1CCOCC1)N1CCN(c2ccccc2)CC1 | -32.3 |
| CCOC(=O)c1c(NC(=O)CSc2nnc(-c3ccncc3)n2Cc2ccco2)sc(C)c1C | -19.3 |
